# Among all 43,000 compounds or so, about 200 (0.47%) were called active. Inconclusive means that the source gave no clear call. Such entries were picked first, then a sample of the others. Calls come from the whole dose curve; as a rule, active = well fitted cell-killing curve with a large enough effect; inconclusive = small, poorly fitted or top-dose-only effect, or effect the other way; inactive = flat fitted curve, though single readings scatter. Where the call is inconclusive, the potency comes from a doubtful curve fit.
# Assay: Cell viability qHTS assay in S16 Pmp22-F2sN cells; note: nearly all actives have a fitted effect of over 65% in size
# Conditions: S16 Pmp22-F2sN Schwann cells viability, CellTiter-Glo, 24 h; activity change, negative = cytotoxicity: at 57.5 µM (top of the series)
# Procedure, shortened: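 S16 Pmp22-F2sN Schwann cells (500-1,000/well) in phenol-red-free DMEM with 10% FBS received 23 nL compound by pin tool for 24 h at 37 °C. Viability was then read as CellTiter-Glo luminescence after 15 min at room temperature.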
# % is set by controls: 0 for no effect and ±100 for the full control effect; potency is the fitted concentration of half-maximal effect; tags give direction and shape of the fitted curve.
SMILES,Potency,"activity change, negative = cytotoxicity"
Cc1ccc(C(=O)Nc2ccc3c(c2)N(C)C(=O)c2ccccc2S3)cc1F,"inconclusive: 3.55 µM [cytotoxic, full curve]",–
O=C(NCc1cccs1)c1ccc(CSc2nc3ccncc3n2Cc2cccc(F)c2)cc1,"inconclusive: 25.1 µM [cytotoxic, partial curve, poor fit]",–
Cc1ccc(NS(=O)(=O)c2c(C(=O)N3CCCCCC3)c(C)n(C)c2C)cc1F,–,inactive: -0.804%
Cc1ccccc1C(=O)Nc1nc2c(s1)CC(C(C)(C)C)CC2 (stereo not given),"inconclusive: 39.8 µM [cytotoxic, single point]",–
CCOC(=O)CSc1nc2c([nH]c3ccccc32)c(=O)n1-c1ccc(OCC)cc1,"inconclusive: 2.51 µM [rising, full curve, poor fit]",–
COc1ccc(CSc2nc3ccncc3n2Cc2nc(-c3ccc(OC)c(OC)c3)oc2C)cc1,–,inactive: -21%
Cc1cc(C)c2nc(N3CCCC(C(=O)NCc4ccccc4F)C3)sc2c1 (stereo not given),–,inactive: -0.397%
CCCN1C(=O)C(O)(CC(=O)c2ccc(C(C)C)cc2)c2ccccc21 (stereo not given),"inconclusive: 39.8 µM [cytotoxic, single point]",–
CN1CCN(Cc2c(O)ccc3cc(-c4ccc(Cl)cc4)c(=O)oc23)CC1,"inconclusive: 17.8 µM [cytotoxic, partial curve]",–
Cc1ccc(CNC(=O)c2ccc(Nc3nc4ccccc4n4nnnc34)cc2)cc1,"inconclusive: 3.55 µM [cytotoxic, full curve, poor fit]",–
Cc1ccc(NC(=O)c2oc3c(c2C)-c2[nH]ncc2CC3)c(Cl)c1,–,inactive: -7.21%
Cc1ccccc1CNC(=O)CSc1nnc(C)c2c(C)n(-c3ccccc3)nc12,"inconclusive: 39.8 µM [cytotoxic, single point]",–
COc1cccc(C(=O)Oc2c(Sc3ccc(C)cc3)c(C)nn2C(C)(C)C)c1OC,"inconclusive: 39.8 µM [cytotoxic, single point]",–
COc1ccc(Nc2nc3ccc(Cl)cc3nc2-n2nc(C)cc2C)cc1,"inconclusive: 2.82 µM [rising, full curve, poor fit]",–
Cc1cc(C)c(NC(=O)Cn2c(=O)n(Cc3ccc(C(=O)NCc4ccc5c(c4)OCO5)cc3)c(=O)c3ccccc32)c(C)c1,"inconclusive: 39.8 µM [cytotoxic, single point]",–
Cc1cc(C)c(NC(=O)CSc2nc3ccccc3c3nc(CCn4cncc4C)nn23)c(C)c1,"inconclusive: 39.8 µM [cytotoxic, single point]",–
COc1cc(C(=O)N(Cc2ccc(F)cc2)Cc2ccco2)cc(OC)c1OC,–,inactive: -0.199%
COc1cc(OC)cc(C(=O)Nc2cc(-c3nc4ccccc4[nH]3)ccc2C)c1,–,inactive: -26.9%
COc1ccc(-n2c(/C=C/c3cccc(C(F)(F)F)c3)nc3ccccc3c2=O)cc1Cl,"inconclusive: 31.6 µM [cytotoxic, single point]",–
Cc1ccc(-c2nc3c(c(SCC(=O)N(C)c4ccccc4)n2)Cc2c(CO)cnc(C)c2O3)cc1,"inconclusive: 39.8 µM [cytotoxic, single point]",–

SMILES,Potency,"activity change, negative = cytotoxicity"
Cc1ccc(-c2c(C(=O)N3CCN(c4cccc(C)c4)C(C)C3)oc(=O)c3ccccc23)cc1 (stereo not given),"inconclusive: 1.78 µM [cytotoxic, full curve, poor fit]",–
CCC(CC)C(=O)OCc1cc(=O)n2nc(C3CCCCC3)sc2n1,"inconclusive: 14.1 µM [rising, partial curve, poor fit]",–
CC(C)(C)OC(=O)N1CCC(c2c(C(=O)NCCc3ccsc3)cnn2-c2ccccc2Cl)CC1,"inconclusive: 25.1 µM [cytotoxic, partial curve, poor fit]",–
COC(=O)c1c(SC)nc2ccccc2c1OCc1ccccc1Cl,–,inactive: -28.7%
CCc1nc2ccccc2n2c(-c3ccccc3)c3c(=O)n(C)c(=O)n(C)c3c12,"inconclusive: 39.8 µM [cytotoxic, partial curve, poor fit]",–
CCOc1ccccc1NS(=O)(=O)c1ccc2c(c1)CC(C)N2C(=O)C1CC1 (stereo not given),"inconclusive: 20 µM [cytotoxic, partial curve, poor fit]",–
Cc1cc(Cl)ccc1OCC(=O)N(Cc1ccc(N(C)C)cc1)C1CCS(=O)(=O)C1 (stereo not given),"inconclusive: 25.1 µM [cytotoxic, partial curve, poor fit]",–
Cc1ccc(CSc2nc3ccncc3n2Cc2nc(-c3ccccc3C)oc2C)cc1,"inconclusive: 35.5 µM [cytotoxic, partial curve, poor fit]",–
O=C(CCS(=O)(=O)c1cc(Br)cc2c1N(C(=O)C1CC1)CC2)N1CCN(c2cccc(C(F)(F)F)c2)CC1,"inconclusive: 28.2 µM [cytotoxic, partial curve, poor fit]",–
COc1ccc(-c2cc(C(=O)NCCc3ccccc3)c3c(-c4ccc(Cl)cc4)[nH]nc3n2)cc1,"inconclusive: 39.8 µM [cytotoxic, single point]",–
CCCOc1cccc(C(=O)Nc2cccc(NC(=O)c3ccc(Cl)cc3Cl)c2)c1,"inconclusive: 25.1 µM [cytotoxic, partial curve, poor fit]",–
CCSc1nc2ccccc2c(OCc2cc(C(=O)OC)ccc2OC)c1C(=O)OC,"inconclusive: 28.2 µM [cytotoxic, single point]",–
O=C1CCSC2(C(=O)N(Cc3ccc(F)cc3)c3ccccc32)N1c1cccc(F)c1 (stereo not given),"inconclusive: 39.8 µM [rising, single point]",–
CCN1C(=O)c2ccccc2S(=O)c2ccc(C(=O)NCc3ccc(Cl)cc3)cc21 (stereo not given),"inconclusive: 39.8 µM [cytotoxic, partial curve, poor fit]",–
CSc1nn(CC(=O)Nc2cc(C)ccc2C)c(N)c1S(=O)(=O)c1ccccc1,"inconclusive: 39.8 µM [cytotoxic, single point]",–
COc1ccc(CCNC(=O)c2c(C)oc3ncn(CC(C)C)c(=O)c23)c(OC)c1,"inconclusive: 25.1 µM [cytotoxic, partial curve, poor fit]",–
COc1ccccc1CCNC(=O)C1CCN(c2nnc(C)c3c(C)n(-c4ccc(C)cc4)nc23)CC1,"inconclusive: 39.8 µM [cytotoxic, single point]",–
Cc1ccc(Cn2c(CN3CCN(c4cccc(Cl)c4)CC3)nc3c2c(=O)n(C)c(=O)n3C)cc1,"inconclusive: 20 µM [cytotoxic, single point]",–
CC(C)c1cc(-c2nc(-c3cccc(Cl)c3)no2)n[nH]1,"inconclusive: 25.1 µM [cytotoxic, single point]",–
COc1ccc(C)c2sc(N3CCN(C(=O)c4ccco4)CC3)nc12,"inconclusive: 39.8 µM [cytotoxic, single point]",–

SMILES,Potency,"activity change, negative = cytotoxicity"
Cc1ccc2oc(C(=O)Nc3sc4c(c3C(=O)NCc3ccco3)CCC4)cc(=O)c2c1,–,inactive: -32.4%
COc1ccc(-c2csc3ncnc(Nc4cc(OC)cc(OC)c4)c23)cc1,–,inactive: -19.3%
Cc1cc(C)cc(NC(=O)c2cc(S(=O)(=O)N3CCc4ccccc43)cn2C)c1,–,inactive: 1.14%
COc1ccc(NS(=O)(=O)c2ccc3[nH]c4c(c3c2)CCCCC4)cc1,"inconclusive: 39.8 µM [cytotoxic, single point]",–
CC(C)c1ccc2occ(CC(=O)N(Cc3ccc(F)cc3)C3CCS(=O)(=O)C3)c2c1 (stereo not given),"inconclusive: 39.8 µM [cytotoxic, single point]",–
COc1ccc(CCNC(=O)c2ccc3c(c2)ncn3-c2ccc(C(C)C)cc2)cc1OC,"inconclusive: 39.8 µM [cytotoxic, single point]",–
CC(=O)c1ccc(N2CCN(C(=O)Nc3ccc(C(C)C)cc3)CC2)cc1,–,inactive: -25.2%
COc1ccc(NC(=O)CCc2nnc3n(Cc4ccc(C)cc4)c(=O)c4ccccc4n23)cc1,–,inactive: 2.8%
CSc1ccc(CCNC(=O)c2cc3cc(S(=O)(=O)N4CCCCC4)ccc3n2C)cc1,"inconclusive: 25.1 µM [cytotoxic, partial curve, poor fit]",–
Cc1ccccc1Nc1c(-c2ccccc2)nc2cccc(C)n12,"inconclusive: 39.8 µM [cytotoxic, partial curve, poor fit]",–
CCc1ccc(C(=O)c2cn(CC(=O)Nc3cc(F)ccc3F)c3nc(C)ccc3c2=O)cc1,–,inactive: -17.2%
CCc1nc(C)cn1S(=O)(=O)c1ccc(Cl)c(Cl)c1OC,–,inactive: -7.19%
CCCOc1ccc(C(=O)Nc2ccc(NC(=O)c3ccccc3)c(C)c2)cc1,–,inactive: -0.751%
COc1ccc(CNCc2c(C(=O)O)n(Cc3ccc(F)cc3)c3cc(C)ccc23)cc1OC,"inconclusive: 31.6 µM [cytotoxic, single point]",–
CN(C)CCN(Cc1ccco1)C(=O)c1oc2ccccc2c1NC(=O)c1cccc(F)c1,"inconclusive: 39.8 µM [cytotoxic, single point]",–
CCC(=O)N1CCc2cc(Br)cc(S(=O)(=O)CCC(=O)Nc3cccc(C)c3C)c21,"inconclusive: 0.562 µM [cytotoxic, full curve, poor fit]",–
CCN(CC)S(=O)(=O)c1ccc2c(c1)N(CC(=O)NCCCN1CCN(c3cc(Cl)ccc3C)CC1)C(=O)CO2,"inconclusive: 39.8 µM [cytotoxic, single point]",–
COc1ccc(Cn2c(C(=O)O)c(CNCc3cccs3)c3ccc(C)cc32)cc1,"inconclusive: 12.6 µM [cytotoxic, partial curve]",–
COc1ccc(-c2c3c(=O)n(C)c(=O)n(C)c3c3c(-c4ccccc4)nc4ccccc4n23)cc1,"inconclusive: 20 µM [cytotoxic, partial curve, poor fit]",–
CNC(=O)c1cc2c(n(-c3ccc(C)cc3)c1=O)CC(C)(C)CC2=O,–,inactive: 11.5%
